The source of these data is PMC4336329 (PLoS ONE, 2015).

The whole screen tested about 310,000 compounds, of which about 14,000 (4.5%) showed an effect of 50% or more. Effects have a minus sign here. The list shows a part of the results.
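Further: peak tail current of the secondary pulse compared with the same well before compound.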

human ether-à-go-go-related gene (hERG) potassium channel, sequence (Q12809 whole entry, looked up): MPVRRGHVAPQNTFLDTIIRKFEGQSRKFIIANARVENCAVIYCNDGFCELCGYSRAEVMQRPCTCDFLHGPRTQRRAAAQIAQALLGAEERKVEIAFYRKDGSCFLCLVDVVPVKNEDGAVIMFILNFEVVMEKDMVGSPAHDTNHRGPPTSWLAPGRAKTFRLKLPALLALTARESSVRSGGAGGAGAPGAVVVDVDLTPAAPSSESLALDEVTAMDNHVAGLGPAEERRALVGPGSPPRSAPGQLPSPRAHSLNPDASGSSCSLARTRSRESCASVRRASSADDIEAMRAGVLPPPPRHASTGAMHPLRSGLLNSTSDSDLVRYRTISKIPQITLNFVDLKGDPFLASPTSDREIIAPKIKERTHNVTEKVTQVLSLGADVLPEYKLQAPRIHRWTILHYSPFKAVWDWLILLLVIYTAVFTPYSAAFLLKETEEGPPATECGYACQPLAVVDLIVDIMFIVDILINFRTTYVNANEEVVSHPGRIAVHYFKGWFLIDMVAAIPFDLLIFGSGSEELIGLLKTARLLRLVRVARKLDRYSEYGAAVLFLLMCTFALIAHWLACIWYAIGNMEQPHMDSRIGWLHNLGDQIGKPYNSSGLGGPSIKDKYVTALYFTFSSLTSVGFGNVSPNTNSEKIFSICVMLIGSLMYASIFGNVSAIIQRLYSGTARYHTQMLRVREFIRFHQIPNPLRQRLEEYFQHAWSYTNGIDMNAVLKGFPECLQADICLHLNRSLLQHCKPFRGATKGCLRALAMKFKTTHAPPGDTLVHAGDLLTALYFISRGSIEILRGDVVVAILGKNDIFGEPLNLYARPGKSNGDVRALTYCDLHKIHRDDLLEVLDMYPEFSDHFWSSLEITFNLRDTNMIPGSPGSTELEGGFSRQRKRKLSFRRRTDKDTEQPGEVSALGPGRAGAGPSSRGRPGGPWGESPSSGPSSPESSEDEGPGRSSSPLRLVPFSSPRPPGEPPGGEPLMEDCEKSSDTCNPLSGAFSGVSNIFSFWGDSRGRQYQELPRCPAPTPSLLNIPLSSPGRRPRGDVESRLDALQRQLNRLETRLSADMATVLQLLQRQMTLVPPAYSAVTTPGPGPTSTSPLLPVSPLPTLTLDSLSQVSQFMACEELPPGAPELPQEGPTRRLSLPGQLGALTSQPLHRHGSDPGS

This test has as its target human ether-à-go-go-related gene (hERG) potassium channel (human, UniProt Q12809). Description: primary screen, population patch clamp on CHO cells stably expressing hERG.
`C=CCO/N=C(\C)c1c(O)c(C)c(-c2ccccc2)n(-c2ccccc2)c1=O`: the “hERG current change (%, negative = inhibition) at 10uM” value is -4.99%.
The value for `O=C(Cc1ccccc1)Oc1ccc(N2C(=O)CCC2=O)cc1` was 6.02%.
For the compound `Cc1cccc(N(C)C(=O)CCS(=O)(=O)c2cc3c(cc2Cl)NC(=O)CO3)c1`, the “hERG current change (%, negative = inhibition) at 10uM” value is listed as -42.9%.
In the case of `C[N+]1(CC(=O)OCCCc2ccccc2)CCOCC1.[I-]`, the “hERG current change (%, negative = inhibition) at 10uM” value came to 10.9%.
As to `COC(=O)CSc1nnc(CSc2nc(C)cc(C)n2)o1`, the “hERG current change (%, negative = inhibition) at 10uM” value worked out at 25%.
The value for `O=C(CCCSc1nc2ccccc2s1)NCc1ccco1` was -27.3%.
In the case of `COc1ccc(C(=O)Nc2nc3nccc(-c4ccccc4)n3n2)cc1` it was -21.2%; in that of `COc1ccc(OC)c(C2Nc3ccccc3NC3=C2C(=O)CC(C)(C)C3)c1` (centres unmarked), 15.4%.
As to `COc1ccc(C(=O)COC(=O)c2ccc(Cl)nc2)c(OC)c1`, the “hERG current change (%, negative = inhibition) at 10uM” value is -29.6%.
The value for `Fc1cc2nccnc2cc1N1CCSCC1` was 0.084%.
For the compound `O=C1OCC(CO)(CO)N=C1NNc1ccccc1[N+](=O)[O-]`, the “hERG current change (%, negative = inhibition) at 10uM” value came out at 10.4%.
Regarding `Cc1ccc(OCCC(=O)NNC(=O)c2nn(C)c(=O)c3ccccc23)cc1`, the “hERG current change (%, negative = inhibition) at 10uM” value is -33.1%.
In the case of `CCC(C)c1ccccc1N1CC(C(=O)NCCCn2nc(C)cc2C)CC1=O` (centres unmarked) it was 0.0933%.
In the case of `COc1ccccc1NC(=S)N/N=C/c1ccc(O)cc1` it was 5.84%; in that of `CCCc1nnc(NC(=O)c2cccnc2)s1`, 9.3%.
In the case of `CC(C)(C)S(=O)c1cccs1` (centres unmarked) it was 14.7%; in that of `c1cncc(N=c2scc(-c3cccc4ccccc34)n2CCCn2ccnc2)c1`, -56.5%.
For the compound `CC(=O)Nc1cccc(NC(=O)Nc2ccc(C)c(Cl)c2)c1`, the “hERG current change (%, negative = inhibition) at 10uM” value is 47.8%.
In the case of `Cc1ccc(C)c(NC(=S)N2CCC(N(C)CC3CCCO3)CC2)c1` (centres unmarked), the “hERG current change (%, negative = inhibition) at 10uM” value is -8.91%.
For the compound `COc1ccc(NC(=O)Nc2cccc(C(=O)N3CCOCC3)c2)cc1OC`, the “hERG current change (%, negative = inhibition) at 10uM” value is given as 0.11%.
In the case of `Cc1ccccc1C(=O)N1CCC(C(=O)Nc2nccs2)CC1` it was 45.5%.
With `Fc1cccc(Cl)c1CSc1nnc(-c2ccncc2)o1`, the “hERG current change (%, negative = inhibition) at 10uM” value is listed as -12.5%.
With `Oc1csc(Cc2nc(-c3ccc4ccccc4c3)cs2)n1`, the “hERG current change (%, negative = inhibition) at 10uM” value came to 7.14%.
The value for `CC/C(=N\NC(=O)c1c(C)nc2ccccn12)c1ccccc1` was 23.1%; that for `CCCCc1nn2c(N)c(/C=C3\C=Nc4ccccc43)c(=O)nc2s1` was -5.84%; that for `O=C(Cc1ccc(-n2c(=S)[nH]c3ccccc3c2=O)cc1)N1CCC(N2CCCCC2)CC1` was -14%.
As for `COc1ccc(CNC(=O)C(=O)NCC2CCCN2S(=O)(=O)c2cccs2)cc1` (centres unmarked), the “hERG current change (%, negative = inhibition) at 10uM” value was -13.8%.
In the case of `CN(C)S(=O)(=O)c1cccc(NC(=O)COC(=O)c2cccn2C)c1` it was -3.94%; in that of `O=C(COC(=O)Cc1ccccc1F)Nc1ccc(F)cc1F`, -3.56%; in that of `CCC(C)Nc1nc(N)c([N+](=O)[O-])c(Nc2cc(OC)ccc2OC)n1` (centres unmarked), 11.2%.
The value for `COc1ccccc1NC(=O)C(NC(=O)OC(C)(C)C)C(C)OCc1ccccc1` (centres unmarked) was 2.08%; that for `CCOc1ccc(C(c2c(NC(=O)c3ccccc3)sc(C)c2C)N2CCN(CCO)CC2)cc1` (centres unmarked) was -21.1%.
The value for `Cc1cc(C(F)(F)F)nc2c(Cl)c(C(C)(C)C)nn12` was 11.9%; that for `Cc1ccc2cc(COC(=O)c3ccncc3)c(=O)[nH]c2c1` was -7.04%; that for `O=C(O)c1nn(-c2ccccc2)c(-c2ccccc2)c1C(=O)c1ccccc1` was -14.3%.
For the compound `CCOc1ccc2cc(C3CC(c4ccco4)=NN3S(C)(=O)=O)c(Cl)nc2c1` (centres unmarked), the “hERG current change (%, negative = inhibition) at 10uM” value is on record as -19.5%.
In the case of `CC(=O)Nc1ccc(/C(C)=N/NC(=O)C2CC2c2ccccc2)cc1` (centres unmarked) it was -8.88%.
In the case of `Cc1cc(C)nc(NN2C(=O)/C(=C/c3ccc(O)cc3)SC2=S)n1` it was -9.07%; in that of `COc1ccc(NC(=O)c2cncc(Br)c2)c(S(=O)(=O)N2CCOCC2)c1`, -3.95%.
The value for `O=C(CCC1CCCN(C(=O)c2ccsc2)C1)N1CCN(c2ccccn2)CC1` (centres unmarked) was -12.9%; that for `CCOC(=O)c1c(C)n(S(=O)(=O)c2ccc(C)cc2)c2ccc(O)c(C(=O)O)c12` was -29.8%.
As to `CC1CCN(S(=O)(=O)c2ccc(S(=O)(=O)NCC3COCCO3)cc2)CC1` (centres unmarked), the “hERG current change (%, negative = inhibition) at 10uM” value is on record as 7.47%.
In the case of `COc1ccc(-c2cn[nH]c2N)cc1OC` it was 10.7%; in that of `COc1ccc(CCNC(=O)CNC(=O)c2ccccc2Br)cc1OC`, -5.29%; in that of `CCOC(=O)/C(=C\c1cccc(O)c1)c1nc2sc(C)c(C)c2c(=O)[nH]1`, 12.3%.
In the case of `Cc1ccc(Oc2nc3c(c(=O)n(Cc4ccccc4F)c(=O)n3C)n2C)cc1`, the “hERG current change (%, negative = inhibition) at 10uM” value is -16.5%.
The value for `COc1cccc(NC2=C(NCCO)C(=O)c3ccccc3C2=O)c1` was -8.76%.
The value for `Cc1c(Cl)cnc(NC(=O)COC(=O)c2cccc(S(=O)(=O)N3CCc4ccccc4C3)c2)c1Cl` was 22.9%; that for `CCN1CCN(c2ccc(S(=O)(=O)N3CCOCC3)cc2NC(=O)/C=C/c2ccc(C)cc2)CC1` was -46%.
On to `COC(=O)c1c(NC(=O)c2ccoc2C)sc(C)c1C`, for which the “hERG current change (%, negative = inhibition) at 10uM” value was 2.34%.
On to `O=C(NCCCCNC(=O)c1cccnc1Cl)c1cccnc1Cl`, for which the “hERG current change (%, negative = inhibition) at 10uM” value is 15.7%.
In the case of `CCN1C(=O)NC2=C(C(=O)c3ccccc32)C1c1ccccc1F` (centres unmarked) it was 15.2%.
For `CC(C)C(=O)N1CCN(c2ccc(NC(=O)c3ccc4c(c3)OCCO4)cc2Cl)CC1`, the “hERG current change (%, negative = inhibition) at 10uM” value is -15%.
As to `COc1ccc(F)cc1CN1CCN(c2ncnc3scc(-c4ccccc4)c23)CC1`, the “hERG current change (%, negative = inhibition) at 10uM” value is -41.6%.
The value for `CC(=O)c1c(O)cc(=O)n(-c2ccccc2)c1-c1cccc2ccccc12` was 25.3%; that for `COc1ccccc1C1CC(=O)NC(SCC(=O)Nc2ccccc2)=C1C#N` (centres unmarked) was 5.8%.
